Experimental data reported in the RNAGym collection of RNA variant scans (doi:10.7554/elife.90254).
The source gives no read counts; variants with many changes may rest on few reads.

B1: LINE1-mini (parent)
chain: GGCAGAGCUCAACACAGCGUGGCAAAGUGGCUGUGGCUAGACUGCC

Variants of: B1
Experiment: self-cleavage, relative activity (ratio to wild type); higher = more cleavage; in vitro, sequencing; the parent is a self-cleaving ribozyme

| Variant | self-cleavage |
| --- | --- |
| C10A A39U U43C | 0.01 |
| U9G G30C C42A | 0.05 |
| C10A C13A A24U G40U | 0.02 |
| U9G G21U G30C | 0.01 |
| C10A A11U A16U U34C G36U | 0.01 |
| C10A C13A C18U | 0.01 |
| C10A A12C C18G | 0 |
| U9G C31G G33A | 0.02 |
| U9G C23A C42U | 0.06 |
| C10A A14U A16U | 0 |
| C10A A11G G21U U32A | 0 |
| U9G C18U G33A A39G | 0.03 |
| C10A A25U U32G G35U | 0.02 |
| C10A A26U G33U C42A | 0.02 |
| C10A A14C G29U G40C | 0.01 |
| C10A A12G G22U A26C G30U G36C C46A | 0.01 |
| U9G U20G A24G | 0.05 |
| U9G G19C U34G G40A | 0.02 |
| C10A A12G C42U C46U | 0 |
| C10A A25U G40U | 0.01 |
| C10A C13A C15A G19A U38G C42U | 0.01 |
| U9G G22C U28G G29U | 0.01 |
| C10A A12G C15U | 0.02 |
| U9G G21U A41U | 0.09 |

| Variant | self-cleavage |
| --- | --- |
| U9G C15U G22C G27C G40A U43C | 0.01 |
| U9G C23U C37A U43G | 0.02 |
| C10A A12G G21U G29C | 0.01 |
| C10A A26C C31A | 0.03 |
| C10A A11C A39U | 0.03 |
| C10A A12G C37U C42U | 0 |
| C10A A11C U34G C37G | 0 |
| U9G G17U C45A | 0.01 |
| U9G G22C G30A C31G C37U | 0.02 |
| C10A C13G A26U C31A | 0.05 |
| C10A A16U U20G | 0.06 |
| C10A A24C A25C | 0.01 |
| C10A A12G A24U | 0.11 |
| U9G G30U C31U | 0.01 |
| U9G C15G A25G G30U G44C C45G | 0.05 |
| C10A A14G C37G | 0 |
| C10A C15A G35C | 0.01 |
| C10A A12U G19C A25U G40C | 0.01 |
| C10A A41U C42U | 0.01 |
| U9G G40C C45G | 0.06 |
| C10A A14G G19A U32G | 0.02 |
| C10A A11C C18U U38A | 0 |
| U9G G21A G30A C45A | 0.04 |
| C10A A11C U20G | 0.04 |

| Variant | self-cleavage |
| --- | --- |
| U9G G21A G29A | 0.03 |
| C10A C15A G17A A26U | 0.04 |
| U9G G19A G30U U34C C37U | 0.01 |
| C10A A11U C18G | 0.06 |
| C10A A11U C18U | 0.03 |
| U9G U20C G33A | 0 |
| C10A A16C C42G | 0 |
| U9G G27C U43C | 0.03 |
| U9G C23U G29U | 0.09 |
| C10A A14U G19A C23U A41G C45U | 0 |
| U9G G19A U20G A26G A39U | 0.29 |
| U9G G27A U28G | 0.1 |
| C10A C15G U28C | 0.01 |
| U9G G27C G29U G36A G44C | 0.02 |
| C10A A16G G36U | 0 |
| C10A A12C C31G | 0 |
| U9G C23A G40U C45A | 0.14 |
| C10A C15A G35C G36A C42G | 0.01 |
| C10A A14C U32A | 0.03 |
| U9G G27A G33U U38A U43A | 0.01 |
| U9G G21U C45U C46G | 0.13 |
| C10A A11C A16U G22C C23A G35A | 0.01 |
| U9G G17U A26U | 0.01 |
| C10A A12C C15A U20G G27C | 0.01 |

| Variant | self-cleavage |
| --- | --- |
| C10A A14G G19U | 0.01 |
| U9G G17U U38A | 0.02 |
| C10A A14C C31A C46A | 0.08 |
| C10A A16U U38G | 0.01 |
| U9G G17U C18A G36U A41C | 0.16 |
| U9G C31U G36U | 0.01 |
| C10A C13A G30U U43A G44U | 0.03 |
| C10A A14U G21U A24C A39C | 0.02 |
| U9G G33C A41G | 0.01 |
| U9G G33C A41C | 0.01 |
| C10A A11U A41U | 0.05 |
| C10A C13G G27C | 0.01 |
| U9G U20C U28C | 0.14 |
| C10A A16G C37U G44A | 0.01 |
| C10A A14G C15U | 0 |
| U9G G19A G40U | 0.11 |
| C10A A14G C18U C23G C46A | 0.04 |
| C10A A11U G21C U43G C45A | 0 |
| C10A A14U G19U A26G A41G | 0 |
| C10A A41C C46U | 0.01 |
| C10A A14G G36A C37G | 0.02 |
| C10A A12G A41G C46U | 0.01 |
| C10A A41C G44A | 0.05 |
| U9G G22A G36A | 0.21 |

| Variant | self-cleavage |
| --- | --- |
| C10A A26U G30A | 0.05 |
| C10A A16C A25U G36A G40A | 0.01 |
| U9G C31U C45U | 0 |
| C10A A11C A14U G19A C42A | 0.01 |
| U9G C18A A24G C31U | 0 |
| C10A A11G G21U C46U | 0.05 |
| U9G G22U U38A C45G | 0.01 |
| U9G C31U U38G | 0 |
| C10A A26C G33U G40C | 0 |
| C10A A26C G29U | 0.04 |
| C10A A12C G27A | 0.03 |
| C10A A14U A24C | 0.04 |
| C10A A11C G33C | 0.01 |
| C10A A12U U32G | 0 |
| U9G C42A C46G | 0.31 |
| C10A C13G C31G U32C A41C | 0.03 |
| U9G G19U C31G G35A A39U | 0.03 |
| U9G C18A G29C C31G C37A A41U | 0.03 |
| C10A C15A A41G | 0.04 |
| C10A A14U C23U G35U G36C | 0.01 |
| U9G U20A G30U | 0.11 |
| C10A C15A G33C C45A | 0.01 |
| C10A C15G C31U | 0.03 |
| C10A A14G C31G G33U U38G U43C | 0.01 |

| Variant | self-cleavage |
| --- | --- |
| C10A A11C U32A A41U | 0 |
| C10A A16U A41U U43C | 0.01 |
| C10A A11C U32G | 0.02 |
| C10A A14C G21C | 0.01 |
| U9G U20A A41C | 0.1 |
| C10A A12G C13A C23U G35A A39G A41C | 0 |
| C10A A12G G19A G35C | 0 |
| C10A C15A A16C G19A G36U | 0 |
| C10A A16C G22C | 0.08 |
| U9G C18A G22A U43G | 0.05 |
| U9G G22A C31A | 0 |
| U9G U32G C42A | 0.03 |
| C10A A25C C45G | 0.05 |
| U9G G30U U32G C42G | 0.05 |
| C10A A24G G36A C42G | 0.01 |
| C10A A11C G19A U20A A24U | 0.01 |
| U9G G17U U43A G44C | 0.01 |
| C10A A26U U34A | 0.1 |
| U9G C23A G33C C37A | 0.03 |
| C10A A16U G22A A41U | 0.02 |
| C10A A12G G21C A25U U34G C45A | 0.01 |
| C10A A12U G33U C45A | 0 |
| U9G U32C C46U | 0.44 |
| U9G C15G G29U G44U | 0 |

| Variant | self-cleavage |
| --- | --- |
| C10A A11C G17C G30U C37G | 0 |
| U9G G36U A39G | 0.04 |
| C10A A24U A41C U43A | 0 |
| C10A A26G G30U | 0.05 |
| C10A A25U G33A | 0.03 |
| C10A A14C G33A G40C | 0.01 |
| U9G G19A G22C A25U | 0.02 |
| U9G G22C A25C G36U | 0.45 |
| U9G G30A C45G | 0.36 |
| C10A A24C A25U U28A G29U G36U | 0.02 |
| C10A A39G C46G | 0.01 |
| C10A A14C G19C A26C U38G A39U | 0.01 |
| C10A A14C G21A A24C | 0.01 |
| C10A A12G G29A U38A | 0.02 |
| C10A A14U G19U | 0.04 |
| C10A C15A C18G A24C U34A | 0.02 |
| U9G G35C C37G G40C | 0.01 |
| C10A C13U C31A G33U | 0 |
| U9G G19U C23U U28C | 0.06 |
| U9G G21U G27C | 0.06 |
| C10A A12U C42U | 0.03 |
| U9G C42A U43G G44C | 0.08 |
| C10A A24U A26U | 0.05 |
